About 100 (0.036%) of roughly 280,000 compounds were called active. The shares of active, inactive and inconclusive entries below differ from those in the screen. Calls come from the whole dose curve; as a rule, active = well fitted inhibition curve with a large enough effect in the signal ratio, with a control signal flat (not every such curve was filed as active); inconclusive = small, poorly fitted or top-dose-only effect, or effect the other way, or a change in a side signal; inactive = no such curve, though single readings can be large or run the other way; the % refers to the signal ratio. A potency beside an inconclusive call is a rough fit, not a confirmed value. A note “side channel” means that the fit belongs to a control or component signal, not to the main read-out.
These compounds were tested against Muscleblind-like protein 1 (Homo sapiens) (UniProt Q9NR56) (assay: qHTS Assay for Inhibitors of MBNL1-poly(CUG) RNA binding). Settings: TR-FRET MBNL1-His/biotin-(CUG)12 binding, 665/545 ratio; series mostly up to 57.5 µM.
Sequence of UniProt Q9NR56 (Q9NR56 whole entry, looked up): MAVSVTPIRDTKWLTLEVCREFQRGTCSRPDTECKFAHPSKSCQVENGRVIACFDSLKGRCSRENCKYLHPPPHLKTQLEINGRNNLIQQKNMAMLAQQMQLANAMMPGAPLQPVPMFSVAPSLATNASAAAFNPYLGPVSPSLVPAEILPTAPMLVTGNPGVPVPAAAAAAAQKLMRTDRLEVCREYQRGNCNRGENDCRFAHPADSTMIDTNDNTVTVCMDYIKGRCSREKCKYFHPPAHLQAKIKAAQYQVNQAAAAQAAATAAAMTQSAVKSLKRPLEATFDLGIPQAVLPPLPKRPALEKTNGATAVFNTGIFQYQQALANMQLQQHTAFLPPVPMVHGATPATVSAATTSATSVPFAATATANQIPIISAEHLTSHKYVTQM
Method in brief: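 Compounds (final 92 nM to 58 uM) are added to His-tagged MBNL1 and biotin-(CUG)12, then terbium anti-His antibody and streptavidin-XL665 (5 nM final). After 60 min at room temperature, the 665/545 nm ratio is read.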
`COc1cccc(/C=C2\N=C(c3cncc(Br)c3)OC2=O)c1` was tested, and the Potency was inconclusive: 1 µM [fluorescent, side channel, single point].
`CC(=O)Nc1nnc(CCN(CCc2nnc(NC(C)=O)s2)[N+](=O)[O-])s1` was tested, and the Potency was inconclusive: 7.94 µM [quencher, side channel, full curve].
`CC(=O)NC1N=C(C)N(c2ccccc2)C1=O` (configuration not stated) was tested, and the Potency was inconclusive: 100 µM [inhibitor, single point].
With `COC(=O)[C@@]1(C#N)[C@@H]2C=CC(C(C)=O)=CN2[C@@H](C(N)=O)[C@@H]1c1ccc(F)cc1` the Potency was inconclusive: 31.6 µM [quencher, side channel, single point].
In the case of `CC(C)N(CC(O)c1cccc([N+](=O)[O-])c1)C(C)C` (configuration not stated), the Potency is reported as inconclusive: 15.8 µM [quencher, side channel, partial curve].
For `COc1ccc2c3c1OC1C(O)C=CC4C(C2)[N+](C)(C)CCC341` (configuration not stated), the Potency was inconclusive: 5.62 µM [fluorescent, side channel, single point].
In the case of `NC(=O)c1ccc(N=Nc2c(O)[nH]c(=O)[nH]c2=O)cc1`, the Potency is reported as inconclusive: 1.26 µM [quencher, side channel, full curve].
With `Cc1oc(-c2cccs2)nc1CSCC(=O)N1CCC2(CC1)OCCO2` the Potency was “inactive”.
With `Cc1nc(C(=O)O)nn1-c1ccc([N+](=O)[O-])cc1` the Potency was inconclusive: 17.8 µM [quencher, partial curve].
`CCOc1ccc(N2C(=O)NC(=O)/C(=C\c3ccc(N4CCCCC4)o3)C2=O)cc1` was tested, and the Potency was inconclusive: 2 µM [quencher, side channel, full curve].
For `CCC(=Nc1ccc2c(c1)CCC2)c1c(O)n(-c2ccc(OC)cc2)c(=O)[nH]c1=O`, the Potency was “inactive”.
`Oc1ccc2c3c1O[C@H]1c4[nH]c5ccccc5c4C[C@@]4(O)C(C2)N(CC2CC2)CC[C@]314` was tested, and the Potency was “inactive”.
With `O=C(CSC1c2ccccc2-c2ccccc21)N/N=C/c1ccc(C(=O)O)cc1` the Potency was “inactive”.
`O=[N+]([O-])c1ccccc1CN1CC=C(c2ccc(F)cc2)CC1` was tested, and the Potency was inconclusive: 14.1 µM [quencher, side channel, partial curve].
In the case of `O=[N+]([O-])NC1=NCN(Cc2ccco2)CN1Cc1ccco1`, the Potency is reported as inconclusive: 10 µM [fluorescent, side channel, partial curve, poor fit].
`CN(C)CCN=Cc1c(O)n(C2CCCCCC2)c(=O)[nH]c1=O` was tested, and the Potency was “inactive”.
In the case of `O=C1NC(=O)N(c2ccccc2F)C(=O)/C1=C/c1ccc(Oc2ccc([N+](=O)[O-])cn2)cc1`, the Potency is reported as inconclusive: 14.1 µM [quencher, side channel, partial curve].
Potency is the fitted concentration of half-maximal effect; tags give direction and shape of the fitted curve or compound fluorescence and quenching.
